Experimental data reported in ChEMBL document CHEMBL1201862, “PubChem BioAssay data set” (2004).
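Cells were grown in 96-well plates and exposed to each compound for 48 hours at five concentrations; endpoints were interpolated linearly between bracketing concentrations, or set to the highest concentration if not reached. The concentration for 50% growth inhibition is given as GI50.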 Calls of active or inactive are those of the source. Cut-off read from the data, not from the text of the source: active = GI50 up to about 1.1 µM and inactive = higher.

Tested on: NCI-H322M
Test: DTP human tumour cell line panel, 48 h

Compound | GI50
COc1ccc2c(c1)[nH]c1c(/C=C/c3ccccc3)nccc12 | inactive: 15.1 µM
Cc1cc(Cl)cc2c1NC(=O)C2=O.O=C(c1ccccc1)C(F)(F)F | inactive: > 100 µM
Cc1ccsc1/C=N/NC1=NCCN1 | inactive: > 100 µM
O=c1ccn(C2OC(CO)C(O)C2F)c(=O)n1Cc1ccccc1 (stereo not drawn) | inactive: > 100 µM
CCOC(=O)C1(C(F)(F)F)N=C(CC)OC(N2CCOCC2)=N1 (stereo not drawn) | inactive: > 100 µM
CC1(C)OC2C(CO)OC(N/C(=N/C#N)Oc3ccccc3)C2O1 (stereo not drawn) | inactive: > 100 µM
COC(=O)C1(C(=O)OC)C/C(C)=C(/C)SCCCS1 | inactive: > 100 µM
NC(=O)c1coc(C2OC(CO)C(O)C2O)n1 (stereo not drawn) | inactive: > 100 µM
COC(=O)C1([C@@H]2C[C@@H](O)[C@]3(C)CC/C=C(\C)CCC[C@H](C)[C@H](O)[C@@H]2O3)CC1 | inactive: > 100 µM
Cc1ccc2c(=O)c(C(=O)NNC(=S)NC3CCCCC3)c[nH]c2n1 | inactive: > 100 µM
N#CCCN(c1ccc(/C=N/c2ccccc2)cc1)S(=O)(=O)c1ccccc1 | inactive: 66.8 µM
COc1ccc2nc(N/N=C/c3sccc3C)cc(C)c2c1 | inactive: 20.6 µM
C/C(=N\Nc1nc2ccccc2s1)c1ccc2ccccc2n1 | inactive: > 100 µM
N#Cc1cnn2c1n[n+]([O-])c1ccc(Cl)cc12 | inactive: 5.08 µM
OCC1OC(NC(=S)NCCC(F)(F)C(F)(F)C(F)(F)C(F)(F)C(F)(F)C(F)(F)F)C(O)C(O)C1O (stereo not drawn) | inactive: > 100 µM
CC(=O)OCC1=C(C)C(OC(=O)C(OC(C)=O)[C@@H](NC(=O)c2ccccc2)c2ccccc2)CCC1(C)C (stereo partly drawn) | inactive: > 100 µM
CC1=C(C(=O)NCc2ccccc2)C(c2ccccc2C)C(C(=O)NCc2ccccc2)=C(C)N1 | inactive: 40.1 µM
O=C(CCC(=O)C(C(=O)c1ccccc1)c1ccccc1)Nc1cccc(C(F)(F)F)c1 (stereo not drawn) | inactive: > 100 µM
O=C1NC(=O)/C(=C/c2ccc(S(=O)(=O)N/N=C\C(O)C(O)C(O)C(O)CO)cc2)N1 (stereo not drawn) | inactive: > 100 µM
C#CC[C@]12CC(=O)CC[C@H]1CC(=O)C2 | inactive: > 100 µM
Cc1cccc(C)c1NC(=O)C(=O)Cc1nc2ccccc2s1 | inactive: > 100 µM
CCOC(=O)/C=C1\C[C@H](NC(=O)OCc2ccccc2)C(=O)N1CC(=O)OCC | inactive: > 100 µM

Compound | GI50
O=C1/C(=N\NC(=S)NC2CCCCC2)c2cc([N+](=O)[O-])ccc2N1CN1CCOCC1 | inactive: 10.2 µM
CC1=C2C(=CO[C@H](C)[C@H]2C)C(O)=C(C(=O)O)C1=O [CITRININ] | inactive: 20.4 µM
O=C1C(Cl)=C(N2CCC[C@@H]2CO)C(=O)c2c(O)ccc(O)c21 | active: 0.366 µM
CC1(C)OC2COC3([C@@H]4OC(C)(C)O[C@@H]4CO)OC(C)(C)OC3C2O1 (stereo partly drawn) | inactive: > 100 µM
CN1CCN(CC(=O)N2c3ccccc3Sc3cc4ccccc4cc32)CC1 | inactive: 14.8 µM
O=C(NC1CCCCC1)c1nn[nH]c1Cl | inactive: > 100 µM
S=c1sc2c(Cl)nc(Cl)nc2n1-c1ccccc1 | inactive: 28.8 µM
Cc1c2cc[n+](C)cc2c(C)c2c1[nH]c1ccc(OCC(F)(F)F)cc12 | inactive: 7.76 µM
CC(/C=C/C=C/C=C/C=C/C=C/C(=O)C1=C(O)C(CCC(=O)O)N(C)C1=O)=C\C(C)C(OC1CC(O)C(O)C(C)O1)C(C)C (stereo not drawn) | inactive: 2.63 µM
O=C(NCP(=O)(O)O)c1cccnc1 [(NICOTINAMIDOMETHYL)PHOSPHONIC ACID] | inactive: > 100 µM
CC(OC1CC(=O)CC2C(=O)C=CC(=O)C12)c1ccccc1 (stereo not drawn) | inactive: 25.6 µM
Cc1[nH]c(=O)[nH]c(=O)c1C(=O)N(CCO)Cc1ccccc1 | inactive: > 100 µM
O=[N+]([O-])C(=C(Nc1cccc2cccnc12)Nc1cccc2cccnc12)C(Cl)=C(Cl)Cl | inactive: 98.4 µM
Cn1c2ccccc2c2c3c(c4c5ccccc5n(C5OC(CO)C(O)C(O)C5O)c4c21)C(=O)OC3=O (stereo not drawn) | inactive: > 100 µM
CN1CC2(CCCCC2)C(O)C12C=CCCC2 (stereo not drawn) | inactive: > 100 µM
CC(=O)c1c(O)c(C)c(O)c(Cc2c(O)c3c(c(C(=O)/C=C/c4ccccc4)c2O)OC(C)(C)C=C3)c1O [ROTTLERIN] | inactive: 2.57 µM
c1cncc(-c2cc(-c3cc(-c4cccnc4)[nH]n3)n[nH]2)c1 | inactive: > 100 µM
O=C1c2cccc([N+](=O)[O-])c2C(=O)N1Cc1ccccc1 | inactive: > 100 µM
CC(O)C(NC(=O)c1ccccc1)C(=O)N(Cc1ccccc1)Cc1ccccc1 (stereo not drawn) | inactive: 20 µM
C/C(=C\COc1ccc2ccc(=O)oc2c1)C1=CC(=O)C(C)(C)O1 [GEIPARVARIN] | inactive: 3.17 µM
CC(=O)c1cc2ccccc2oc1=O [3-ACETYLCOUMARIN] | inactive: > 100 µM
COc1ccccc1/C=C(\C#N)C(=O)c1ccccc1 | inactive: > 100 µM

Compound | GI50
COc1ccc2c(c1)CCCN1Cc3ccccc3CC21 (stereo not drawn) | inactive: > 100 µM
O=C1/C(=C/c2ccccc2)CN(C(=O)C(Cl)(Cl)Cl)C/C1=C\c1ccccc1 | inactive: 5.78 µM
O=C1O[C@H]2[C@H](OC(=O)c3cc(O)c(O)c(O)c3)[C@@H](OC(=O)c3cc(O)c(O)c4c3[C@@H]3C1=CC(=O)C(O)(O)C3(O)O4)[C@H](OC(=O)c1cc(O)c(O)c(O)c1)O[C@@H]2COC(=O)c1cc(O)c(O)c(O)c1 (stereo partly drawn) [TERCHEBIN] | inactive: 56.1 µM
COC(=O)/C(C#N)=C1\NC(=O)CC(c2ccccc2)C1C#N (stereo not drawn) | inactive: > 100 µM
Cc1cc(Cl)ccc1NC(=O)CC1SC(Nc2ccccc2Cl)=NC1=O (stereo not drawn) | inactive: 63.2 µM
O=C1/C(=C\Oc2ccc(F)cc2)N2CCC1CC2 | inactive: 62.8 µM
CCCCCC#CCOC(=O)C(=[N+]=[N-])P(=O)(c1ccccc1)c1ccccc1 | inactive: > 10 µM
Sc1nnc(-c2ccccc2)n1/N=C\c1ccc(-c2ccc(Cl)cc2)o1 | inactive: > 100 µM
OB1OCc2ccccc21 [BENZOXABOROLE] | inactive: 74.5 µM
O=C1Cc2c(-c3ccccc3)cc(-c3ccccc3)nc2-c2ccccc2N1 | inactive: 5.56 µM
CN1C(=O)c2ccc3ccccc3c2C1=O | inactive: > 100 µM
COc1cc(-c2cc(=O)c3c(O)c(OC)c(OC)c(OC)c3o2)cc(OC)c1OC [GARDENIN] | inactive: > 61.2 µM
N=c1oc2ccc(Cl)cc2cc1C(=O)NC1CCCCC1 | inactive: 42.4 µM
C=CCn1c(N)c(C#N)c(C#N)c1-c1ccccc1 | inactive: > 100 µM
c1ccc2c(c1)NCc1cc3ccccc3nc1O2 | inactive: > 100 µM
N#Cc1nc(C2OC(COC(=O)c3ccccc3)C(OC(=O)c3ccccc3)C2OC(=O)c2ccccc2)oc1N (stereo not drawn) | inactive: 93.1 µM
NS(=O)(=O)c1cc(C(=O)O)c(Cl)c([N+](=O)[O-])c1Cl | inactive: > 100 µM
CCOC(=O)[C@H]1C[C@@H](C(=O)c2ccccc2)N2N=C(c3ccc(Br)cc3)C=C[C@H]12 | inactive: > 100 µM
C=CCCCCCCCCC(=O)NS(=O)(=O)c1ccccc1 | inactive: > 100 µM
C=C[C@@H](OCOCC[Si](C)(C)C)[C@@H](CC)OC(CCCOC(=O)C(C)(C)C)OC (stereo partly drawn) | inactive: 82.4 µM
C[n+]1c(Cl)cn2c3nc4ccccc4nc3c([O-])c(C#N)c21 | inactive: > 100 µM
C[C@]12CC[C@@H]3c4ccc(O)cc4CC[C@H]3[C@@H]1C/C(=C\c1ccc([N+](=O)[O-])cc1)C2=O | inactive: > 100 µM

Compound | GI50
O=C1CCN2C(=O)CCN12 | inactive: > 100 µM
Cc1ccc(/C(O)=C/c2nc3ccccc3oc2=O)cc1 | inactive: 94.8 µM
N#C/C(=C\c1cc(Br)c(O)c(Br)c1)c1cccnc1 | inactive: 42.5 µM
CC(=O)N(C(C)=O)n1nc2c(n1)C(=O)c1ccccc1C2=O | inactive: > 100 µM
O=C(/C=C/c1ccccc1O)c1ccccc1Cl | inactive: 56.1 µM
CNC(=O)N(CCC#N)CCN(C(=O)N(C)C)c1ccccc1 | inactive: > 100 µM
Cn1c2ccccc2c(=O)c2c(O)cc3c(c21)C=CC(C)(C)O3 [NORACRONYCINE] | inactive: > 25 µM
CCC1(CC)C(=O)CC[C@@]2(C)C1=CC[C@H]1[C@@H]3CC[C@H](O)[C@@]3(C)CC[C@@H]12 | inactive: 78.2 µM
N/N=C(\C(=O)Nc1c(Cl)cc([N+](=O)[O-])cc1Cl)C(c1cnc2ccc([N+](=O)[O-])cc2n1)[N+](=O)[O-] (stereo not drawn) | inactive: > 100 µM
O=C(CCN1CCCCC1CO)Nc1ccc2c(c1)C(=O)c1ccc(NC(=O)CCN3CCCCC3CO)cc1C2=O (stereo not drawn) | inactive: 7.06 µM
O=S(=O)(O)c1cc(S(=O)(=O)O)c2c(/N=N/c3ccc(/N=N/c4ccccc4)cc3)c(O)ccc2c1 | inactive: > 100 µM
O=C(O)c1ccccc1/C=N\N=C1NCCN1 | inactive: > 100 µM
CCCCCC(=O)OC[n+]1cccc(-c2c(COC(=O)NC(C)C)c(COC(=O)NC(C)C)c3n2CCC3)c1 | inactive: > 71.6 µM
CC1=C(O)C(=O)[C@@H]2O[C@@H]2C1=O | inactive: 24.3 µM
Clc1ccc(Cc2nc3cc(Cl)ccc3o2)cc1 | inactive: 57.3 µM
COc1cc2c(oc(=O)c3cc(C)cc(OC)c32)c2c(C3OC(C)C(O)C(C)(O)C3O)ccc(O)c12 (stereo not drawn) | active: 0.493 µM
CC(=O)CC1CCC(=O)/C=C/C(=O)OC(CC(C)=O)CCC(=O)/C=C/C(=O)O1 (stereo not drawn) | inactive: 22.2 µM
CCOC(=O)c1nc2ccc(C(F)(F)F)cc2nc1Oc1cc(OC)cc(OC)c1 | inactive: > 100 µM
CC(C)(C)C1=CC(O)(c2c3ccccc3c(C3(O)C=C(C(C)(C)C)C(=O)C(C(C)(C)C)=C3)c3ccccc23)C=C(C(C)(C)C)C1=O | inactive: > 100 µM
O=C(c1ccc(-c2ccccc2)cc1)N(Cc1cccnc1)C(=S)N(Cc1cccnc1)C(=O)c1ccc(-c2ccccc2)cc1 | inactive: > 100 µM
C=C1C(O)C2OC(=O)C(=C)C2C(OC(=O)/C(C)=C/C)CC2(C)OC2C2OC12 (stereo not drawn) | inactive: 11.2 µM
O=C1CC[C@@]2(O)[C@H]3Cc4ccc(-c5ccccc5)c5c4[C@@]2(CCN3CC2CC2)[C@H]1O5 | inactive: 22.8 µM
